Experimental data from the supplement of paper PMC3334620.
Whole data set: some 33,000 sequences, median “E-score (-0.5 to 0.5)” near -0.012, cut for the highest 2% near 0.27. Some of the results follow.

The sequences below were run against T1, Vhr1 (UniProt P40522) (assay: PBM E-score (8-mer binding enrichment) (E-score (-0.5 to 0.5)); higher = stronger / more preferred TF binding; most listed sequences are background and not binding sites). Details: protein concentration: 200 nM; construct: GST-full length.
T1 sequence: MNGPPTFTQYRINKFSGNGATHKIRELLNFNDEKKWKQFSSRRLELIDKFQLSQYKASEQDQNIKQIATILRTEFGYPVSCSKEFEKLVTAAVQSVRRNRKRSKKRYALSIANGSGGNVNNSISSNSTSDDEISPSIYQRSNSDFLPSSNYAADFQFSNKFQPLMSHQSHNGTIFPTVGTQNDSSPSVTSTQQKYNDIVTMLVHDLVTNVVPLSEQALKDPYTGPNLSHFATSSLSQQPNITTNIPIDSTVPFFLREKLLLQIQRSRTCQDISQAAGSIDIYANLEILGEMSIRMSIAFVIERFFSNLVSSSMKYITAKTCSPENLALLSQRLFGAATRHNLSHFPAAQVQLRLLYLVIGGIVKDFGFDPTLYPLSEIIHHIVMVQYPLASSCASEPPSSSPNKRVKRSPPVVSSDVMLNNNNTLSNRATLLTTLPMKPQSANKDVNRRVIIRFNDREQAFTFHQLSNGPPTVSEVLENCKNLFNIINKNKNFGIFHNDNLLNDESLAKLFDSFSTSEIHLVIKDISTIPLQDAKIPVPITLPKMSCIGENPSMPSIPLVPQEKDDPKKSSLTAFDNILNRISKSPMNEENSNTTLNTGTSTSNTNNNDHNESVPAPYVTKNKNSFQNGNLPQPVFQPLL
How it was run: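 The E-score, a modified Wilcoxon-Mann-Whitney statistic, was computed by the Universal PBM Analysis Suite for every ungapped eight-base word pooled with its reverse complement. Scans behind it were normalised with masliner after bound GST-tagged yeast transcription factors were detected with fluorescent anti-GST. The proteins, at about 100-200 nM, had been applied to universal all-10-mer Agilent arrays made double-stranded by primer extension.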

Sequence	PBM E-score
CCAACAGG	-0.123
CTATATAC	0.241
AAAGGGGG	-0.193
TTGACAAA	-0.298
CGTCCATA	0.0491
GCGGTATA	0.107
GGCCACCA	0.0226
CGGAATTA	-0.193
AGAGCAAG	0.013
ACACGAGT	0.188
AGAGATCC	-0.0438
CTAGCCGC	0.0646
CCACTTAC	0.175
GGCGCGCC	0.152
ACTACAAT	0.277
ATTGCAAG	-0.178
AGATCACA	-0.03
AAGGCTAT	-0.0977
AGGCAGAA	-0.00902
CATGTGGC	0.108
CCCGAAAG	-0.0441
CGATCTAC	-0.0502
GTTGCTAA	0.15
CTGTGAAG	-0.0687
CCCTGTGA	0.0176

Sequence	PBM E-score
CGAACAGC	-0.0471
CCTGTTAC	0.0285
ATTTCCCA	-0.0342
ATAACACG	0.154
AGGCATCC	-0.147
GGAAGTTA	0.00048
AATCAAAC	0.0462
CCCCCCGG	-0.021
GGTTCATA	0.1
CGATAAGC	-0.191
TGGAGGAA	-0.0594
AGATAGGG	-0.26
AGACCAAG	0.0449
GAATGCAA	-0.109
ACCGGTAC	-0.222
AAGTCATC	0.323
AGAAGGCC	-0.152
AAGAACGG	-0.00677
CTGCCAAA	0.0428
CGATTCTA	-0.137
AAAAGTCC	-0.265
AGTCCACT	-0.158
AAGAAGGT	-0.0924
CTACCGCC	-0.055
AACCTTAT	-0.0319

Sequence	PBM E-score
ACTCCGGA	0.188
CCAGTCAA	0.045
AACGGATA	0.0678
ACGGGCAC	-0.0445
CGCGAGGC	0.138
AATAGATC	0.0118
CCTTAGCC	-0.076
TCTAAAGA	0.0488
ATGCGAAT	0.186
AATAATGA	0.0266
GAAAATGA	-0.0818
AACGAGTA	0.134
CGTGGATA	-0.0329
ATCCAGTC	0.187
AAGCGGTC	0.0473
ACGTTCAG	-0.171
GCGGTACA	0.0387
AGCACACT	0.122
AGACTACC	0.0276
ATCAAACC	0.0981
GCATAGCC	-0.171
ACAACCCC	-0.061
GATGGTAC	0.0306
ATCAGATC	-0.0603
CAATTGTA	-0.0887

Sequence	PBM E-score
ACGATTAG	0.045
GTGTTTAA	-0.0256
GCAAAAGA	-0.0677
ATAGCCCG	-0.124
AGGGACTG	0.0457
ATACGCGG	-0.0262
CTTCGCTC	-0.0922
CTGCCGTC	0.0236
GAAATCCA	-0.0854
GGTTAATA	0.103
CAGCTGGG	0.134
CTAACGAA	-0.14
GGGTGAAC	0.0885
CTGTTCGA	-0.156
AAGTGATT	0.192
ATTCCTCC	0.00734
CTGTTGCC	-0.169
GACTTTTA	-0.265
ATAGACCG	-0.0898
CATCTGCC	-0.0601
TAATCAGA	0.146
CATTTCAC	-0.115
CTCCGCAC	-0.00478
GCCCTCAC	0.0633
CCCCTCCA	0.174

Sequence	PBM E-score
AGATTCCC	-0.0261
ACGATGGG	0.0176
CTATAACA	-0.0876
CCTGGGGC	-0.256
AACTGCTC	-0.0909
CGCTCTCC	-0.168
ACATGAAT	0.228
CGTGCAAC	-0.0564
GTCTTAGA	-0.0647
AATACAGG	0.111
GCTGCTAA	-0.0776
AGGCTTAT	-0.0879
ATAACGGA	0.0722
ATAGCCTA	0.11
CCATTATC	0.126
CCAGTCCG	-0.0813
AACAGATC	-0.0905
GTTGGCTA	0.0235
ACGCGCCC	-0.0551
GGGTTACC	-0.032
ATATAAAC	0.121
CGCACGGC	-0.0492
AGTCGGCC	0.278
GGGTTTAA	-0.14
GTTGCGAA	-0.0321

Sequence	PBM E-score
TCGGGCAA	-0.165
AGACAGCG	-0.0643
GTCGGTAA	-0.113
ACATTCAG	-0.102
AGCCAGTA	0.133
AAATAAAA	-0.15
TAGATATA	0.0912
GAGGAATC	0.0804
AATAACCA	0.0138
AATACAAC	0.0738
CTTACCAC	-0.0307
ATGATTAC	0.391
AGCTCCTC	-0.282
CCGTGCCC	-0.125
AAACGAGT	0.178
AACGATGC	-0.267
AGTTTCAA	-0.124
CTCAATGC	-0.0586
ATGTTGAA	0.0174
CGACTTGC	0.104
TACAGCTA	0.024
CGTGAAAC	-0.243
ACAATGAT	0.197
GTGAGGAA	-0.038
ACGCAAAT	0.0646

Sequence	PBM E-score
TCCACGAA	0.0847
CATGAGGA	0.0735
CCCCACGA	0.0936
GACATTAA	-0.0904
AGTACGCG	0.0152
GACTCGGC	0.213
GCGTAATA	0.0801
TATCCCCA	0.0927
GAATAGTC	0.14
GTTCAATA	-0.00435
AAGATCCA	-0.00767
CTTTCTTA	-0.209
CTTCCGGA	-0.166
CGCCATCC	-0.0639
GTAAACAA	0.0447
ATGGGAAA	-0.149
CACTCCAA	-0.0718
CAAAAGTC	-0.13
ATAGCTCC	-0.107
GCTATACA	-0.0428
ACCATAGT	0.0959
GTGTCTTA	0.0499
